From publication PMC4864424 come the findings set out here.

Chains of the proteins cited; added tags and fusions are not shown. Lines headed by an entry give the natural chain unless they say otherwise; changes in a name come on top. Residues count along the entry.
UniProt P35579: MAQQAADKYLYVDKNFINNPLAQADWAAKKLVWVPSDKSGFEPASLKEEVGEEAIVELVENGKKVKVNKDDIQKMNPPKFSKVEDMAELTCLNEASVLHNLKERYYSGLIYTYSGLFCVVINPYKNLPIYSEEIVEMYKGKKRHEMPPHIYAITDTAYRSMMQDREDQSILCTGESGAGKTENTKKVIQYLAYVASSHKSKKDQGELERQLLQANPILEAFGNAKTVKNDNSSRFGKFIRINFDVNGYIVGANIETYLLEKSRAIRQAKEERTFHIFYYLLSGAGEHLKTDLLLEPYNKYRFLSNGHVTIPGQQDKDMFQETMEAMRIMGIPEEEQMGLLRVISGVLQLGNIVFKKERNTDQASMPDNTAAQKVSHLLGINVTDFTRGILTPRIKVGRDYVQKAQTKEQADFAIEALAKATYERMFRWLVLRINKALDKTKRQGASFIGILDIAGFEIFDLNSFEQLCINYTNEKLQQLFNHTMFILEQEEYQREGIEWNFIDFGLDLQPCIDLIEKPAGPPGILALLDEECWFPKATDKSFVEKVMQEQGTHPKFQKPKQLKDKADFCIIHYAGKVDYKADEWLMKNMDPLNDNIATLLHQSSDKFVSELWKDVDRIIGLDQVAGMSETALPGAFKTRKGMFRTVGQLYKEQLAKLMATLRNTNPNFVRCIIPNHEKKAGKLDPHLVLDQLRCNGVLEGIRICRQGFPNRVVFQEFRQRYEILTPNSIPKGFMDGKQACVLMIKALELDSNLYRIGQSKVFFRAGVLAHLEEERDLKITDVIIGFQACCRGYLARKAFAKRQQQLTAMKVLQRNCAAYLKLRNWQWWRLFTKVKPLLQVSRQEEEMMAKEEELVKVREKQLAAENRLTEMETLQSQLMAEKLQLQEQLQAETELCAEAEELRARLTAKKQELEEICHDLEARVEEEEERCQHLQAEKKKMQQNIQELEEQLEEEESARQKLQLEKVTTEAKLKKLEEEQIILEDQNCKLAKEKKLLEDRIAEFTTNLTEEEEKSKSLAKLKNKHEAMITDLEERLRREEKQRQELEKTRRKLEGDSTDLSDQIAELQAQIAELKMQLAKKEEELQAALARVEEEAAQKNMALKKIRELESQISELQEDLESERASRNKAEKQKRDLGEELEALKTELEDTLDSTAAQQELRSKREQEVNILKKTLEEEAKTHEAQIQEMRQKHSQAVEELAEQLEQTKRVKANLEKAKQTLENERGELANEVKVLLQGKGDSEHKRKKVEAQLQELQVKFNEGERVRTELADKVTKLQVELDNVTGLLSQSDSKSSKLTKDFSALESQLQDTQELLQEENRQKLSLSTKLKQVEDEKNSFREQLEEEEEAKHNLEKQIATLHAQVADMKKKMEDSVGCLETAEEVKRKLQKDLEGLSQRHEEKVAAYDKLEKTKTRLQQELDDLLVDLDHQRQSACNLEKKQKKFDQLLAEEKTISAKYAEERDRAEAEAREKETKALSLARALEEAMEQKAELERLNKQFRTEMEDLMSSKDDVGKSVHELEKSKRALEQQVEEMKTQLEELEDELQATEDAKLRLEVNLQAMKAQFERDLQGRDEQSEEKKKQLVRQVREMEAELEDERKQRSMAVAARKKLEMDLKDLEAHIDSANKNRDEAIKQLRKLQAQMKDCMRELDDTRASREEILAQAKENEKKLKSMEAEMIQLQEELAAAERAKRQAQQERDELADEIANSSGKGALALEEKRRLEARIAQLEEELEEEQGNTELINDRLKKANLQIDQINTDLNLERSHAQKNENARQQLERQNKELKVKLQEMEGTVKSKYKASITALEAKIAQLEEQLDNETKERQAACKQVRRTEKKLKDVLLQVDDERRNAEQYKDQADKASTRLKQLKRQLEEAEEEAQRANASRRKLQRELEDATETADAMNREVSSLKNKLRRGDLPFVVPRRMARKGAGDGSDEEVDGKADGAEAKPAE
UniProt Q96QP1: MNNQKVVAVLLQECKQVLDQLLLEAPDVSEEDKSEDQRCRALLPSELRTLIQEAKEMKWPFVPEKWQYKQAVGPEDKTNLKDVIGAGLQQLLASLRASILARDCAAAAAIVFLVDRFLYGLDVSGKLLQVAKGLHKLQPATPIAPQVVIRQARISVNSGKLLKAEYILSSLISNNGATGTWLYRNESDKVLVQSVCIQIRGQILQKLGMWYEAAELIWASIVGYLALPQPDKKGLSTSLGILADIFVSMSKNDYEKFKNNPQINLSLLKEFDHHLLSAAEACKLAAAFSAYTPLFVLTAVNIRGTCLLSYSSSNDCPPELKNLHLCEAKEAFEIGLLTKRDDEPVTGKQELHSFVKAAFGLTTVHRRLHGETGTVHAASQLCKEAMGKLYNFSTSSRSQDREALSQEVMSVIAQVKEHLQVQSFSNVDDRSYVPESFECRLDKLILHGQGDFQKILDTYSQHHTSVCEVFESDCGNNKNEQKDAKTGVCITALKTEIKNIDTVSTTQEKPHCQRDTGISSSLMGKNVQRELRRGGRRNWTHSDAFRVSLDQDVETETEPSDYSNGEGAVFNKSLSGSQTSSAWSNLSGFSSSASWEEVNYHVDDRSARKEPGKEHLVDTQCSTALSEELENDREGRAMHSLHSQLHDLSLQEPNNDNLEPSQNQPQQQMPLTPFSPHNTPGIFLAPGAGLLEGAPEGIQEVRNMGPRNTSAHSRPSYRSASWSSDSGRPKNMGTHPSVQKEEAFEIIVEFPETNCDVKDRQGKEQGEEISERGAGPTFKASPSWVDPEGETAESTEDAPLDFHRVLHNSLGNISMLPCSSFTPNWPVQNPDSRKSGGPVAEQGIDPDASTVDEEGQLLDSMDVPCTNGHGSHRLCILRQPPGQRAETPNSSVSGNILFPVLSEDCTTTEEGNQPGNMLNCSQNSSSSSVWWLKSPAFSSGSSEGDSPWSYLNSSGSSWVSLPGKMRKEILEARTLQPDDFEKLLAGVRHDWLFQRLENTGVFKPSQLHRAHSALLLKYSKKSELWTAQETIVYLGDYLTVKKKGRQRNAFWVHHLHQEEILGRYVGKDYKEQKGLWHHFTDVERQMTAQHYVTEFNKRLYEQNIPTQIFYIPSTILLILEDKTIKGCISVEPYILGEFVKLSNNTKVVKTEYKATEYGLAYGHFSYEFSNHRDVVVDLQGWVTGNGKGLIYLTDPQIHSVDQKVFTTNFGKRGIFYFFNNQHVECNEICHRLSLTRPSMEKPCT
Halo-ALPK1 N-terminal (Nt) recombinant protein: residues 1-569 of Q96QP1
HA-ALPK1 Nt1 (1-271 a.a.): residues 1-271 of Q96QP1
HA-ALPK1 middle region (mid, 432-961 a.a.): residues 432-961 of Q96QP1

These are yes or no findings as the source states them, for the method shown. For part of these data: In cells and extracts the contact can be indirect. Some entries that bind do so weakly or less than the wild type.

Assay [1] concerns the target Flag-tagged myosin IIA (MYH9, 1-1960 a.a.) (UniProt P35579). Put plainly: co-IP; HEK293T cotransfected with HA-tagged ALPK1 forms and Flag-myosin IIA; precipitated with Flag antibody (M2), Protein G beads; blots with anti-HA, anti-F-actin, anti-calmodulin.
Assay [2] concerns the target HA-ALPK1 Nt1 (1-271 a.a.) (human) (UniProt Q96QP1). Put plainly: co-IP; HEK293T cotransfected with HA-tagged ALPK1 forms and Flag-myosin IIA; precipitated with HA antibody (12CA5), Protein G beads; blots with anti-Flag, anti-F-actin, anti-calmodulin.
In assay [3] the target is HA-ALPK1 full-length (FL, 1-1244 a.a.) (human) (UniProt Q96QP1). The description is as above.
Assay [4] addresses HA-ALPK1 middle region (mid, 432-961 a.a.) (human) (UniProt Q96QP1). The description is as above.
Assay [5] addresses Halo-ALPK1 N-terminal (Nt) recombinant protein (human) (UniProt Q96QP1). Put plainly: pull-down; Halo-ALPK1 FL and Nt on HaloLink resin with THP-1 cell lysates; bands on SDS-PAGE identified by LC/MS/MS and confirmed by Western blotting; only the target purified. For orientation: Immunoblotting shows a protein as a band on a membrane.
Assay [6] has as its target Halo-ALPK1 full-length (FL) recombinant protein (human) (UniProt Q96QP1). Described as above.
The target is the same in assay [7]. Briefly: co-purification (Halo-tag purification); ALPK1 recombinant protein purified from HEK 293F cells by the Halo-tag system; endogenous myosin IIA co-eluted, seen as a weak band in the kinase assay gel.

For the substance “HA-ALPK1 middle region (mid, 432-961 a.a.) (from UniProt Q96QP1-1 432-961) (domain or fragment)”, the binding result in assay [1] is listed as “no binding”. “HA-ALPK1 full-length (FL, 1-1244 a.a.) (from UniProt Q96QP1-1 1-1244) (enzyme)”: the binding result in assay [1] is “binds”. As for “HA-ALPK1 Nt1 (1-271 a.a.) (from UniProt Q96QP1-1 1-271) (domain or fragment)”, the binding entry in assay [1] is given as “binds”. For the substance “Flag-tagged myosin IIA (MYH9, 1-1960 a.a.) (from UniProt P35579 1-1960)”, the binding entry in assay [2] is “binds”; in assay [3], “binds”; in assay [4], “no binding”. As to “Myosin-9 (endogenous myosin IIA) (from UniProt P35579 1-1960)”, the binding result in assay [5], in assay [6] and in assay [7] was “binds” throughout.
